Source: doi:10.1101/2023.01.03.522657
Like-named read-outs stand apart in the source and are kept apart here. No constants are given. Whether binding was seen depends on the method and setting. Binding seen in cells or lysates may run through a third protein. Some entries that bind do so weakly or less than the wild type. For some assays here: Where a sequence is shown, tags or fusion partners need not be part of it. One block for each molecule: values may come before it.

Sequences of proteins named here, by UniProt entry; tags and fusion partners are left off.
UniProt P49815: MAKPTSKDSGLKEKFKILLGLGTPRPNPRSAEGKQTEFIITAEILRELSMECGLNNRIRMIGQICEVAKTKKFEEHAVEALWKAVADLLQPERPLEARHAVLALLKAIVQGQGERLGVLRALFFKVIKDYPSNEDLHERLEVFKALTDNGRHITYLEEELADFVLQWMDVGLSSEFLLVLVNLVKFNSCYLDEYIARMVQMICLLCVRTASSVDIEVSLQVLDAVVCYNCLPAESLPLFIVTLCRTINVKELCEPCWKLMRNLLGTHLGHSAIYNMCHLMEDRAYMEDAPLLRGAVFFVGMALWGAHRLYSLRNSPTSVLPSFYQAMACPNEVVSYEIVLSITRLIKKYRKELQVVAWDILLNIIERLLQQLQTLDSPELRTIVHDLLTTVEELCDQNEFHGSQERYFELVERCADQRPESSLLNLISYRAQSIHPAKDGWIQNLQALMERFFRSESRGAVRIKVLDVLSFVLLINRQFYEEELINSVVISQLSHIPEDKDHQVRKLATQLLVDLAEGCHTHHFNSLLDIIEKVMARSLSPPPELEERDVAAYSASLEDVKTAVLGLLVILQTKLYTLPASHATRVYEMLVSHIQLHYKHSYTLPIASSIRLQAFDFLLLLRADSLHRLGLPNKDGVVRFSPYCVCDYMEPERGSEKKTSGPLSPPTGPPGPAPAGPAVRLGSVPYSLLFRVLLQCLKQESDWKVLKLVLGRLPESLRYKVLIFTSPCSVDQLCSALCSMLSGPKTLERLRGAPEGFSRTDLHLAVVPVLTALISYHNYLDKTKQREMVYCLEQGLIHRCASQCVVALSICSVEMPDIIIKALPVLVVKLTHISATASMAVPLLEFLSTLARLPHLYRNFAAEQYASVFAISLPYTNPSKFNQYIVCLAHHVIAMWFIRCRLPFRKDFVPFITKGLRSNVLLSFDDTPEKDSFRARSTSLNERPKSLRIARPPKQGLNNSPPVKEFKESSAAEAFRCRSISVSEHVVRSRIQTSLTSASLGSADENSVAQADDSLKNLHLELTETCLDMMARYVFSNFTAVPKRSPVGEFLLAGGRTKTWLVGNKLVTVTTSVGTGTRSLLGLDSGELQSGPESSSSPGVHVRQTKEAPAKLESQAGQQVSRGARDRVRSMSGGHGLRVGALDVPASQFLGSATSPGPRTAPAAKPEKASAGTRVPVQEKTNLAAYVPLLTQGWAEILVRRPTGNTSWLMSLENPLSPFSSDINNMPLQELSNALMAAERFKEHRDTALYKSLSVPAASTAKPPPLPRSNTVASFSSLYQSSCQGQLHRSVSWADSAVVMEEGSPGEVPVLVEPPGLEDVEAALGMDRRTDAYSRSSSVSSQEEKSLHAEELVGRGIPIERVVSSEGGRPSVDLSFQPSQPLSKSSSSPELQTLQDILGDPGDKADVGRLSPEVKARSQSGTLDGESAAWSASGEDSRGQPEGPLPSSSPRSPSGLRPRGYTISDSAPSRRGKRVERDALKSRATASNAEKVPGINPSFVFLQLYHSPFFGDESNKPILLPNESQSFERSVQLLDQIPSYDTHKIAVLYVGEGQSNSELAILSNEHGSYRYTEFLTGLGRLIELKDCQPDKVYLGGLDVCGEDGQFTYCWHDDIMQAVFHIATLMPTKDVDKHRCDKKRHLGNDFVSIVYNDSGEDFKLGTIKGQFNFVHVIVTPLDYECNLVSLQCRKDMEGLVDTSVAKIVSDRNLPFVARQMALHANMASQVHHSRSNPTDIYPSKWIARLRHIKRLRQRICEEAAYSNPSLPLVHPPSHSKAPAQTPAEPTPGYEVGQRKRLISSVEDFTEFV
UniProt P60953: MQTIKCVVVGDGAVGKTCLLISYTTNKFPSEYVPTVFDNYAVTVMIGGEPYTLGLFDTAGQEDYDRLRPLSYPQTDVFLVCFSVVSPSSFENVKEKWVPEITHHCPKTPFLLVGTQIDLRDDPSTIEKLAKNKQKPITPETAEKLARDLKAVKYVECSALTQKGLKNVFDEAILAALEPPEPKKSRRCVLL
UniProt Q6R327: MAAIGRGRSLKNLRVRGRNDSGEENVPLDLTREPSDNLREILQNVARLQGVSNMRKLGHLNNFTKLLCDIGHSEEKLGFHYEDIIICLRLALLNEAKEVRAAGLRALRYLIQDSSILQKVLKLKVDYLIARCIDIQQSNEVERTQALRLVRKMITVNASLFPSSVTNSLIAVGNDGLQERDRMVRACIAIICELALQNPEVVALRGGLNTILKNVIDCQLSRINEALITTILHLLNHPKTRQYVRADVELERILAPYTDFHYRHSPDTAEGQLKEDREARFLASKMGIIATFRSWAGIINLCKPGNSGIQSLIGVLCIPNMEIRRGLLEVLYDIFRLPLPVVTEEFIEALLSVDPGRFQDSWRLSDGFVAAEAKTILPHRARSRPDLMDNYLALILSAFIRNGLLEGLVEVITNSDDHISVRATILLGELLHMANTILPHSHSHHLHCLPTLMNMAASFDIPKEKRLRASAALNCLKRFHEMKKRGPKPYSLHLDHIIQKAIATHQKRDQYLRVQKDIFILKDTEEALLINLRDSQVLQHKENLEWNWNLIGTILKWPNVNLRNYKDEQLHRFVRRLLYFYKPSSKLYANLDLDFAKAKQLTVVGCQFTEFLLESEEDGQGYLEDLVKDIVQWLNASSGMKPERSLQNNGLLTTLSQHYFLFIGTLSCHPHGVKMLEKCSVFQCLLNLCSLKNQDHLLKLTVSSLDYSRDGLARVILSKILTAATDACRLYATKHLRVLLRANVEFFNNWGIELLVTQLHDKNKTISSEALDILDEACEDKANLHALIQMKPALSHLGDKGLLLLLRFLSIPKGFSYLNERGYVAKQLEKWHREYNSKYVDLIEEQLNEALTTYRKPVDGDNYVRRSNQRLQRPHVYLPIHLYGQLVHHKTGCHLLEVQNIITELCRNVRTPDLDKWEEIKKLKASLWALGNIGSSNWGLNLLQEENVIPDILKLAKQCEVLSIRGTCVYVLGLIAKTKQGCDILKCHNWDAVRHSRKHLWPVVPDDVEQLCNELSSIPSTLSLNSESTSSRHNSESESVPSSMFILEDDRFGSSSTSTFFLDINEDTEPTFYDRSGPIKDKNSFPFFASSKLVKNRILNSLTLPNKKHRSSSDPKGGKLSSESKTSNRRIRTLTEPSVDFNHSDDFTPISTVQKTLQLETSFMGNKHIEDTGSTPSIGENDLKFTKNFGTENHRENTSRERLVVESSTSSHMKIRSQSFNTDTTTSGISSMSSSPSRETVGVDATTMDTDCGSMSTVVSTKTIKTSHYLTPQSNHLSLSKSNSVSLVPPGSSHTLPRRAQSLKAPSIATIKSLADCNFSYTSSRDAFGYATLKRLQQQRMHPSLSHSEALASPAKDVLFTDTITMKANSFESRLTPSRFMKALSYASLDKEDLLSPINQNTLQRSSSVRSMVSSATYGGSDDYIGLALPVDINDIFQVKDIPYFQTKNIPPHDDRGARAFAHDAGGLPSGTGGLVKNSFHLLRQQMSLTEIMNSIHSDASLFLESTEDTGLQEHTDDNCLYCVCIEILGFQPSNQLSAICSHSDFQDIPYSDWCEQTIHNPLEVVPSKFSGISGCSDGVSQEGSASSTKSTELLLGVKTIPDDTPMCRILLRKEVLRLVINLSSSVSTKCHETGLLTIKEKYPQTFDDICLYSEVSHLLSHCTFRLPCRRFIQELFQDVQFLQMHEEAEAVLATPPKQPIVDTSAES

Key:
Flag-tagged TSC2 = Flag-tagged TSC2 (UniProt P49815); assay: co-IP; HEK-293T lysates (50 mM Hepes pH 8.0, 150 mM NaCl, 0.3% CHAPS); anti-Myc, HA, Flag or V5 antibody 2 h, then BSA-coated Protein G beads 1 h at 4°C; Western blot
Myc-tagged TSC1 = target: T1, Myc-tagged TSC1 (UniProt Q92574); assay: as above
T1 sequence: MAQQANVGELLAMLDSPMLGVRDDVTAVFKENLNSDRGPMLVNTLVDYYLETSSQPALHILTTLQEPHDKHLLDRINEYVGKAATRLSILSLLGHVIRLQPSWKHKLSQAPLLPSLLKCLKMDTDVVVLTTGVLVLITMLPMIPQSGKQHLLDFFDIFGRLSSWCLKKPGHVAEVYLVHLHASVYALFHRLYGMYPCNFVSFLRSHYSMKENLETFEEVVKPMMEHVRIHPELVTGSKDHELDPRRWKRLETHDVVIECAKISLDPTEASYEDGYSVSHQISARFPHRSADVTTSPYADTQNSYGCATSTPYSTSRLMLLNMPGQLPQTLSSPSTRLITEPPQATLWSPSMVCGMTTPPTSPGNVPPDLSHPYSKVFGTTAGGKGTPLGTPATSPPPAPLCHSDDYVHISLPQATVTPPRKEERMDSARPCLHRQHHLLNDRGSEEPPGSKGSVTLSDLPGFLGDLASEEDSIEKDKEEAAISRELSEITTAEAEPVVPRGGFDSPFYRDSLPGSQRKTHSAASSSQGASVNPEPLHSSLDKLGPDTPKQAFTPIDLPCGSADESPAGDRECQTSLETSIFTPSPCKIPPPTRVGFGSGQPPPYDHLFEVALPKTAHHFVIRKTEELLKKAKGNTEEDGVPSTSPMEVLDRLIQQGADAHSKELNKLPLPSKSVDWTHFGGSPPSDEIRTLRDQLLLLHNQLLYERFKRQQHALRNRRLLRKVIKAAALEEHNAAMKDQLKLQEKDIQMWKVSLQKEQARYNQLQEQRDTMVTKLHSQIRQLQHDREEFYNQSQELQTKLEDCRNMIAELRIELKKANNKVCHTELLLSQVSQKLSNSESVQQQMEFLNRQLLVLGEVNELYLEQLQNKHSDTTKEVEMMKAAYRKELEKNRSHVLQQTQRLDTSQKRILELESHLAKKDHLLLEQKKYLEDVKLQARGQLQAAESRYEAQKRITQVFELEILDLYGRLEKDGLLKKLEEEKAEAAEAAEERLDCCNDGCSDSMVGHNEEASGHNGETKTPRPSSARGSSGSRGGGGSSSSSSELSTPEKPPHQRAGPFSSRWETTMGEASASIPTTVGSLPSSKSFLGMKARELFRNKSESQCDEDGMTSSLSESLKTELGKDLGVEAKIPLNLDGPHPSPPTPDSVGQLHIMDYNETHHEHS

[1] = target: T2, V5-tagged DHR2 limit domain of Dock7 (human (cDNA from HeLa cells)) (UniProt Q96N67); assay: as above
T2 sequence: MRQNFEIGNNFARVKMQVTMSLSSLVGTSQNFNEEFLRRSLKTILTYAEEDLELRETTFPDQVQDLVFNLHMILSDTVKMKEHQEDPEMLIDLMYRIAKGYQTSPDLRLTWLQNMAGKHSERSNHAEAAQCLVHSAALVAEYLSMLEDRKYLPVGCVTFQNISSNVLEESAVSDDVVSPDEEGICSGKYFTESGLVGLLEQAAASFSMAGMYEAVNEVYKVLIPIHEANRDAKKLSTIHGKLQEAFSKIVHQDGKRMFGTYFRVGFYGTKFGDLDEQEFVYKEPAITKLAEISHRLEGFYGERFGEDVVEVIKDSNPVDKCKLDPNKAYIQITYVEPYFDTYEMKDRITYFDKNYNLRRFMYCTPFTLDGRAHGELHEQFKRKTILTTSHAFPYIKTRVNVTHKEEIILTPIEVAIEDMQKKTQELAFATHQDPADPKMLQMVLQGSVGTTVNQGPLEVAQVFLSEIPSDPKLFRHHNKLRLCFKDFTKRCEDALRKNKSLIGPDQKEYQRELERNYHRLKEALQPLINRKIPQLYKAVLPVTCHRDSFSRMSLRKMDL

[2] = target: endogenous Cdc42 (human (endogenous in MDA-MB-231)) (UniProt P60953); assay: proximity ligation; Duolink PLA between two endogenous proteins in fixed MDA-MB-231 cells, in complete media or serum-starved 18–24 h; in some panels after Dock7 knockdown and overexpression of Dock7 constructs
[3] = target: T3, endogenous LAMP1 (human (endogenous in MDA-MB-231)) (UniProt P11279); assay: as above
T3 sequence: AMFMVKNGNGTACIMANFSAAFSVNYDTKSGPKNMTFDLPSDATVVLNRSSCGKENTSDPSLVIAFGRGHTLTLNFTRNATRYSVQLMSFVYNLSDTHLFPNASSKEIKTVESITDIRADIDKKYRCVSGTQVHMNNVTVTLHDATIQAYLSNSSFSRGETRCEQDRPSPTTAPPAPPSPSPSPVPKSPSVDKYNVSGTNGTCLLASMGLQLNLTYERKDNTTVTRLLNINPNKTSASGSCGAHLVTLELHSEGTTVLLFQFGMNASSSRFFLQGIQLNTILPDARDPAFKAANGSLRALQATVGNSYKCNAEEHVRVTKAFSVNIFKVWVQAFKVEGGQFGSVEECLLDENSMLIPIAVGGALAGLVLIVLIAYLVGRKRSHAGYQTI

[4] = target: endogenous Rheb (human (endogenous in MDA-MB-231)) (UniProt Q15382); assay: as above
[5] = target: endogenous Rictor (human (endogenous in MDA-MB-231)) (UniProt Q6R327); assay: as above
[6] = target: T4, endogenous TSC1 (human (endogenous in MDA-MB-231 and HEK-293T)) (UniProt Q92574); assay: as above
T4 sequence: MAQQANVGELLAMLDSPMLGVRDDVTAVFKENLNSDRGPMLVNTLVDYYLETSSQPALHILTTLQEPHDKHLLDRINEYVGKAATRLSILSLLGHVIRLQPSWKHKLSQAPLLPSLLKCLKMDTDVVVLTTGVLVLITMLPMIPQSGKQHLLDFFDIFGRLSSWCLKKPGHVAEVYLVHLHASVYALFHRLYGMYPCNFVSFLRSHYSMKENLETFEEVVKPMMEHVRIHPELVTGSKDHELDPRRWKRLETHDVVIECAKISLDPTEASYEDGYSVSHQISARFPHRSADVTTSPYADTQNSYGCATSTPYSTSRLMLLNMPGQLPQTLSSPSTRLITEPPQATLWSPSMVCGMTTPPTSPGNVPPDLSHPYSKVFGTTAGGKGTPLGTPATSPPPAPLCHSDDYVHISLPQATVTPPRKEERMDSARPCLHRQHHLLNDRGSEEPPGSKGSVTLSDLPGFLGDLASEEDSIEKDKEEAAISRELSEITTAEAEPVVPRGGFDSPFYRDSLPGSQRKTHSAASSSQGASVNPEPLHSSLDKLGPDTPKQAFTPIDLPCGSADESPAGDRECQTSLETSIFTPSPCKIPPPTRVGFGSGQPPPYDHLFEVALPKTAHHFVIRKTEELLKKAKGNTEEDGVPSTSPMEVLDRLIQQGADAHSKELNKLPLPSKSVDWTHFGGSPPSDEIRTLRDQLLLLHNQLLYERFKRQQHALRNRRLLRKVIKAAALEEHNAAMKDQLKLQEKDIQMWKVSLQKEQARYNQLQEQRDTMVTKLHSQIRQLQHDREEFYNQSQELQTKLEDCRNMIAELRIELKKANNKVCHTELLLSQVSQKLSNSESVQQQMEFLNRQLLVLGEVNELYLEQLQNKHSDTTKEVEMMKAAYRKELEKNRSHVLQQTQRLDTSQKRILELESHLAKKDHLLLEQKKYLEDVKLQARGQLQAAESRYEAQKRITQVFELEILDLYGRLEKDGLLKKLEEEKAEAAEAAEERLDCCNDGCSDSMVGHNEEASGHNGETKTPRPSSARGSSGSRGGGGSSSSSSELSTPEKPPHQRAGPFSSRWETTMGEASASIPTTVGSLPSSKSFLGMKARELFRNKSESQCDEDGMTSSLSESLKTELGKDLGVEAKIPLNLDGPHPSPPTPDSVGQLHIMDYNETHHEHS

[7] = target: endogenous TSC2 (human (endogenous in MDA-MB-231 and HEK-293T)) (UniProt P49815); assay: as above
Recombinant GST-Cdc42 = Recombinant GST-Cdc42 (UniProt P60953); assay: pull-down; GST fusion on glutathione beads loaded with GTPγS (10 mM EDTA + 100 μM GTPγS, then 50 mM MgCl2), added to pre-cleared HEK-293T lysate (1% Triton X-100), 4 °C for 2 h; blot for endogenous Dock7; only the target purified
Recombinant GST-Rheb = Recombinant GST-Rheb (UniProt Q15382); assay: as above
[8] = target: endogenous Cdc42 (human (endogenous in MDA-MB-231)) (UniProt P60953); assay: proximity ligation; Duolink PLA between the V5 tag of an overexpressed Dock7 construct and an endogenous partner in fixed, serum-starved MDA-MB-231 cells (limit domains: after Dock7 knockdown)
[9] = target: T2, V5-tagged DHR2 limit domain of Dock7 (human (cDNA from HeLa cells)); assay: co-IP; HEK-293T lysates (50 mM Hepes pH 8.0, 150 mM NaCl, 0.3% CHAPS); anti-Myc, HA, Flag or V5 antibody 2 h, then BSA-coated Protein G beads 1 h at 4°C; Western blot; remark: listed apart in the source

binding (Flag-tagged TSC2): binds | binding (Myc-tagged TSC1): binds | binding [1]: binds | binding [2]: binds | binding [3]: no binding | binding [4]: binds | binding [5]: binds | binding [6]: binds | binding [7]: binds | binding (Recombinant GST-Cdc42): binds | binding (Recombinant GST-Rheb): binds
Molecule: endogenous Dock7 (from UniProt Q96N67-4 1-2098)

binding [8]: binds
Molecule: V5-tagged full-length WT Dock7 (from UniProt Q96N67-4 1-2098)

binding [8]: binds
Molecule: Dock7-DDM-V5 (dimerization-defective mutant of full-length Dock7) (from UniProt Q96N67-4 1-2098)

binding [9]: binds
B1: V5-tagged DHR2 limit domain of Dock7 (domain or fragment, UniProt Q96N67-4 1540-2098)
chain: MRQNFEIGNNFARVKMQVTMSLSSLVGTSQNFNEEFLRRSLKTILTYAEEDLELRETTFPDQVQDLVFNLHMILSDTVKMKEHQEDPEMLIDLMYRIAKGYQTSPDLRLTWLQNMAGKHSERSNHAEAAQCLVHSAALVAEYLSMLEDRKYLPVGCVTFQNISSNVLEESAVSDDVVSPDEEGICSGKYFTESGLVGLLEQAAASFSMAGMYEAVNEVYKVLIPIHEANRDAKKLSTIHGKLQEAFSKIVHQDGKRMFGTYFRVGFYGTKFGDLDEQEFVYKEPAITKLAEISHRLEGFYGERFGEDVVEVIKDSNPVDKCKLDPNKAYIQITYVEPYFDTYEMKDRITYFDKNYNLRRFMYCTPFTLDGRAHGELHEQFKRKTILTTSHAFPYIKTRVNVTHKEEIILTPIEVAIEDMQKKTQELAFATHQDPADPKMLQMVLQGSVGTTVNQGPLEVAQVFLSEIPSDPKLFRHHNKLRLCFKDFTKRCEDALRKNKSLIGPDQKEYQRELERNYHRLKEALQPLINRKIPQLYKAVLPVTCHRDSFSRMSLRKMDL
